Test results taken from the supplement of paper PMC10126150.
Sequences with one replicate were seen in a single cluster, so their values are uncertain.

System: ATP
Test: switch fluorescence ratio, 500 uM ATP over buffer (Cy3 cluster intensity, sum of 5 cycles each) (fold (ratio)); higher = stronger signal-on switching upon ATP binding; sequences stand for … in TCGTCGGCAGCGTCAGATGTGTATAAGAGACAGTTTTTTTTTTTTTTTTTTTTTTTTT…TC
Details: aptamer strand: ATP DNA aptamer (quencher-CACCTGGGGGAGTATTGCGGAGGAAGG + anchor), 100 nM annealed; ATP concentration: 500 uM; one replicate
In short: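 Between each of five buffer/ATP cycles, the flow-cell was stripped with NaOH and re-annealed. Each cycle imaged Cy3-labelled switching-strand clusters, annealed to 100 nM quencher-labelled ATP aptamer on a modified Illumina MiSeq flow-cell, first in selection buffer and then after 15 min with 500 uM ATP at 22 °C. The fluorescence ratio is summed target-cycle over summed buffer-cycle Cy3 intensity per cluster, averaged per switch-domain sequence, with clusters outside 100-1000 RFU excluded.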
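Also: ATP exposure 15 min at 22 °C before imaging.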

Row | Sequence | switch fluorescence ratio
1 | CCGGTCAATT | 1.68
2 | GAATGCAGG | 0.946
3 | AGCTTTCGAG | 1.09
4 | GCGCCGGGC | 0.974
5 | TGGCCATTG | 0.91
6 | AGTAAGAGT | 1
7 | TACCGGGATT | 1.02
8 | AGGAGATTAA | 1.07
9 | AAATTAACAA | 1.03
10 | GATTGGGGT | 0.986
11 | GGAATATGGT | 0.969
12 | AAACACGAGA | 1.05
13 | CCTATCCAC | 1.12
14 | CGGTGCGAGC | 0.984
15 | TATTTCGTAG | 0.995
16 | TAAAGTGTTC | 1.03
17 | AATGTGTT | 0.97
18 | TGTAGTTTG | 1
19 | TAACAGACT | 1.1
20 | CGTAATTAT | 1.03
21 | TACGCTGGTG | 1.05
22 | CAAGCCTGTA | 1.01
23 | AAGCACCTAT | 1.17
24 | GTTATATATC | 0.996
25 | TGACTGCAAA | 1.18
26 | GTATAGCCCC | 0.994

Row | Sequence | switch fluorescence ratio
27 | ACTGTAATGG | 1.2
28 | CTCTGGCGGG | 0.984
29 | ACAAGGCACT | 1.03
30 | CGGTAGCACG | 0.981
31 | CTCAGTAAGT | 1.08
32 | AGAGCTAGTG | 0.953
33 | TACAAAGGGG | 1.02
34 | CGATACAAGA | 1.07
35 | CTTGTGGTTT | 1.02
36 | GCTGGCACGC | 1.03
37 | CATGTTCCTC | 1.05
38 | GGACGCTTTT | 1.03
39 | CTTTTGTGTA | 0.965
40 | TATAAATTCG | 1
41 | TGCGCGAATG | 0.969
42 | AAAATGTTCG | 1.07
43 | TACGGTGAGT | 0.997
44 | AGAGTTAGTT | 0.973
45 | TTGGTCCGGG | 0.978
46 | CCCAGGAAC | 1.05
47 | TCTCATCCGT | 1.23
48 | GCGTTGATTG | 0.982
49 | GCGCTATAGA | 1.01
50 | GTCGAGTTTG | 0.971
51 | ATGTTCGCAT | 1.02
52 | AGCCAGACAA | 1.03

Row | Sequence | switch fluorescence ratio
53 | AATTTAAAGG | 0.995
54 | TGGGTCTGTA | 1.01
55 | AAAGATGCCA | 1.02
56 | CGATGTTACC | 1.07
57 | AAGGGATTA | 1
58 | TCCAAAAATG | 1.02
59 | GGCGCGGCCG | 0.991
60 | TGGAGCTGAC | 1.05
61 | TGGTCATGGT | 1.02
62 | TATGGCGCGA | 1.02
63 | ATGTGGCCGT | 0.977
64 | TGGATCCGGG | 1.01
65 | CTGGCGTCGT | 0.983
66 | TGCGGCAAAG | 1.4
67 | CAACAATGGC | 1.01
68 | TTCTAAGATC | 1.38
69 | ATAAGTGCAC | 0.951
70 | TGGTACGCAT | 1.34
71 | TCGGTAACGG | 1.04
72 | TGTAATATCG | 0.968
73 | GTGAGGGGAG | 0.983
74 | TAAAATAAAC | 1.01
75 | GGCCGCGTGC | 1.21
76 | TAACACGTTA | 1.24
77 | TTTCGAT | 0.971
78 | TCGGACCCT | 1.06

Row | Sequence | switch fluorescence ratio
79 | CCGTTTACTG | 1.05
80 | GGGCTGTCTC | 1
81 | GAGCCTCACG | 1.05
82 | GAAGTGGGGA | 1.03
83 | CGCCCTGTGA | 1.11
84 | TATATCAACG | 0.983
85 | TGGCCTTTGA | 0.99
86 | AAGAAAACGC | 0.982
87 | AGTTTGTGCG | 1.11
88 | GCGGAAAGTT | 0.999
89 | TTAGACTATA | 1.04
90 | GACCGTGGCC | 1.05
91 | CTTATTTC | 0.989
92 | GCTAGCGAT | 1.03
93 | TGTAGTCCCT | 0.998
94 | TTCGCATTGC | 1.38
95 | CGCTCCGAAG | 1.27
96 | ACGGTATCGG | 1.01
97 | TGAAAGGGCC | 1.01
98 | CTCTCACGCC | 1.35
99 | ATGCAAATTA | 1.02
100 | GTCTGAAAAT | 0.991
101 | GCAACTCTTT | 1.01
102 | TCGAGCGAGG | 0.959
103 | GGTAGCCTCT | 0.997
104 | CGGGGCTAAT | 0.984

Row | Sequence | switch fluorescence ratio
105 | GATTGCTTGT | 1
106 | GTTGTCCTGC | 0.952
107 | CAATGGGTGG | 1.07
108 | GCATCGGCGC | 1.01
109 | CGAGGCACGG | 1.14
110 | GCAGGCTTG | 1
111 | CATGCCGCCT | 0.989
112 | GTTTGTCTAT | 0.955
113 | CTTCAATTCG | 1.01
114 | TGTTGAGATT | 1.05
115 | ACCTGGGGTC | 1.05
116 | CAAGGAGGGC | 0.989
117 | TAAGTATGTG | 1.01
118 | TCTTTGTAAG | 1.19
119 | TACGTTGGA | 1.03
120 | ATTAAATTGA | 1.01
121 | CTTGAGCATA | 1.77
122 | ATCGGAACCA | 1.01
123 | TAATTAGTTG | 1.1
124 | AGAGAAATCG | 1.06
125 | AGGTGCTGCT | 0.926
126 | TTACGAGGTG | 1.08
127 | ATTACGATTC | 1.02
128 | CCGTGGACAC | 1.79
129 | ATGTCGGCGG | 0.974
130 | ACTTATGCGG | 0.979

Row | Sequence | switch fluorescence ratio
131 | ACCTCGGTAA | 1.06
132 | TGCCGAGTTA | 1.02
133 | TTTGCTTGTC | 1.02
134 | TCAGGAGTTG | 0.997
135 | CCGGGCCCGT | 1.03
136 | CATGATGCGG | 0.988
137 | GGTACCCCAT | 0.963
138 | CAAATTTTTC | 1.02
139 | TGCAATGCGT | 1.82
140 | TACACTCGTA | 1.06
141 | GGAGTATTG | 0.974
142 | TCATCGATTG | 0.996
143 | TATCTACG | 1
144 | AATTTTAGG | 0.956
145 | TAGGTCCGTA | 1.02
146 | CGAGTAGTCG | 1.07
147 | CGTGGTGAGA | 1.05
148 | GGTGAGACTA | 1.01
149 | TAACTCGGGG | 1.02
150 | AAAATACGAT | 1.33
151 | GCCAAATTGA | 0.948
152 | TCGTAACTAC | 2.98
153 | CCAGTCGTGT | 1.05
154 | CCGTTGCCGA | 0.993
155 | CTTCAAGTGG | 1.15
156 | TACATAGGGG | 1.02

Row | Sequence | switch fluorescence ratio
157 | GGTCGTGGGG | 1.01
158 | TGATATCTTA | 0.993
159 | CGGGAAAAAT | 1.03
160 | ATGCTTGGGA | 1.01
161 | ATTAATTGCT | 0.988
162 | ATCCCGTATA | 1.04
163 | GTGAAATGGT | 1.02
164 | CCCACTAATC | 1.18
165 | TTTCATAAAA | 1.05
166 | TTCATGATAC | 1.17
167 | TTCTCTAATT | 1.07
168 | TGACCCCCGC | 1.44
169 | ATCCATGAGG | 1
170 | GTTCCAGATT | 1.02
171 | GTAGATATAA | 0.968
172 | CGGCCAGGCG | 1.09
173 | AGGTGTCCAA | 1
174 | TATGGTCGCA | 1.01
175 | GATATGACCG | 1.08
176 | ATACTGGCCG | 1.09
177 | TCTTAAGGGG | 1.36
178 | ACATTGTGTC | 1.03
179 | GCATTCCCGT | 1.08
180 | GGAGTTAAGG | 0.997
181 | CAGAGCACAC | 2.07
182 | CAGATAACCC | 0.984

Row | Sequence | switch fluorescence ratio
183 | TAGGTGTTTA | 0.994
184 | CTTCGTGCCC | 1.24
185 | GGTGTACCCC | 1.03
186 | AACAATCATT | 0.991
187 | AGGTCCGAG | 0.942
188 | TGGTCTGTGC | 0.965
189 | ATACATAATG | 1.06
190 | TCGGTCAAAA | 0.987
191 | ATGGTTATGG | 1
192 | TCTTTATCGA | 1.01
193 | GAGCCATATT | 1.01
194 | AAAGGCGACG | 0.98
195 | AATATCTCTC | 1.04
196 | CCTAATTGTT | 1.11
197 | CTACTACTTG | 1.04
198 | TTCGGAAACG | 0.947
199 | TGGGTCTCGT | 0.995
200 | ACAGGCCGCA | 1.03
201 | ATTGATTAAT | 0.989
